Assay results published in PubChem BioAssay AID686971 (National Center for Advancing Translational Sciences (NCATS), 2013).
Hit rate of the full screen: of about 360,000 compounds, about 7,500 (2.1%) were called active. The inconclusive results got no clear call from the source; some entries with a clear call stand among them for comparison. Calls come from the whole dose curve; as a rule, active = well fitted cell-killing curve with a large enough effect; inconclusive = small, poorly fitted or top-dose-only effect, or effect the other way, or another doubt; inactive = no such curve, though single readings can be large or run the other way. No potency is given beside an inconclusive call; the fits are too rough.

Experiment: qHTS for induction of synthetic lethality in tumor cells producing 2HG: qHTS for the HT-1080-IDH1KD cell line;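 for activity, negative = toxicity: 0% = DMSO wells and -100% = cell-free medium wells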
Conditions: HT-1080 IDH1 knockdown viability, ATP luminescence, 48 h; activity, negative = toxicity: at 46.1 µM (top of the series) unless noted
Outline: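 Using the IDH1-knockdown HT-1080 line run in the same batch and compound series as the NT line, viability after 48 h at 37 °C was determined by CellTiter-Glo luminescence and expressed as % activity.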
Potency is the fitted concentration of half-maximal effect; tags give direction and shape of the fitted curve.

Question: Which “activity, negative = toxicity” value does the source give for `O=C(CSc1nc2nccnc2c(=O)n1Cc1cccs1)Nc1ccccc1` here?
Answer: inactive: -1.32%

Question: Which Potency does the source give for `Cc1ccc(S(=O)(=O)N(C)C[C@@H]2Oc3ccc(NC(=O)CCC(F)(F)F)cc3CC(=O)N([C@@H](C)CO)C[C@@H]2C)cc1` here?
Answer: active: 4.61 µM

Question: For `O=C(CCNC(=O)c1ccco1)Nc1ccc(OC(F)F)cc1`, which “activity, negative = toxicity” value is on record?
Answer: inactive: 0.102%

Question: Which Potency does the source give for `O=C(/C=C/c1ccccc1)COC(=O)c1ccccc1` here?
Answer: inconclusive [cytotoxic, single point]

Question: With `COC(=O)[C@]1(Cc2ccccc2)N[C@H](CN(C)C(=O)Nc2ccc(F)cc2)[C@@H]2C(=O)N(Cc3ccccc3)C(=O)[C@@H]21` as the compound, how does the “activity, negative = toxicity” value read?
Answer: inactive: -19.4%

Question: Which Potency does the source give for `Cc1ccc(S(=O)(=O)N(CC2CO2)c2cccc([N+](=O)[O-])c2)cc1` (stereo not drawn) here?
Answer: inconclusive [cytotoxic, single point]

Question: Which Potency does the source give for `CCOC(=O)C1CCCN(C(=O)c2cncc(Br)c2)CC1` (stereo not drawn) here?
Answer: inconclusive [rising, single point]

Question: Which Potency does the source give for `CC(NC(=O)CN(c1cccc(C(F)(F)F)c1)S(=O)(=O)c1ccc(Cl)c([N+](=O)[O-])c1)c1ccccc1` (stereo not drawn) here?
Answer: active: 18.4 µM

Question: Which “activity, negative = toxicity” value does the source give for `CCCCNC(=O)C[C@@H]1C[C@@]2(C(=O)OC)CC(C)(C)CC=C2N(CCc2ccc(OC)c(OC)c2)C1=O` here?
Answer: inactive: 3.77%

Question: Which Potency does the source give for `Cc1ccc2[nH]c(=O)c(C(c3nnnn3C3CCCC3)N(Cc3cccnc3)Cc3ccco3)cc2c1` (stereo not drawn) here?
Answer: inconclusive [cytotoxic, single point]

Question: For `CSc1cccc(NC(=O)NCc2cccc(CNC(=O)Nc3cccc(SC)c3)c2)c1`, which Potency is on record?
Answer: inconclusive [cytotoxic, partial curve]

Question: For `O=[N+]([O-])c1ccc2[nH]ncc2c1`, which “activity, negative = toxicity” value is on record?
Answer: inactive: -0.249%

Question: Which “activity, negative = toxicity” value does the source give for `CCN(Cc1ccncc1)Cc1cn[nH]c1-c1cc(OC)c(OC)c(OC)c1` here?
Answer: inactive: -3.7%

Question: Which Potency does the source give for `O=C(/C=C/c1ccc2c(c1)OCO2)NCCSCc1cccc(Cl)c1` here?
Answer: inconclusive [cytotoxic, partial curve]

Question: Which Potency does the source give for `O=C(COc1ccc2c(c1)OCO2)Nc1ccc2c(c1)oc1ccccc12` here?
Answer: inconclusive [cytotoxic, single point]

Question: With `COc1cc(CNCCO)cc(Cl)c1OCc1ccccc1Cl` as the compound, how does the Potency read?
Answer: inconclusive [cytotoxic, single point]

Question: For `CN(C)CCNc1oc(COc2ccc(-c3ccccc3)cc2)nc1C#N`, which Potency is on record?
Answer: inconclusive [cytotoxic, single point]

Question: For `COc1ccc(-c2ccc(CN3C(CC(C)C)C(=O)N(Cc4cn(CC5CCCCC5)nn4)CCS3(=O)=O)cc2)cc1` (stereo not drawn), which Potency is on record?
Answer: inconclusive [cytotoxic, single point]

Question: For `COc1ccc(S(=O)(=O)Oc2ccc3ccccc3c2)cc1`, which “activity, negative = toxicity” value is on record?
Answer: inactive: -6.4%

Question: For `Cc1cc(Br)ccc1OCC(=O)NNC(=O)CCc1ccccc1`, which Potency is on record?
Answer: inconclusive [cytotoxic, partial curve]

Question: Which “activity, negative = toxicity” value does the source give for `Cc1c(NC(=O)Nc2cccc(C(F)(F)F)c2)c(=O)n(-c2ccccc2)n1C` here?
Answer: inactive: 6.98%

Question: With `COc1ccc(-c2cc(C(F)(F)F)nc(SCC(=O)NCc3cccs3)n2)cc1` as the compound, how does the Potency read?
Answer: inconclusive [cytotoxic, single point]

Question: With `CC1(c2cccc(Br)c2)NC(=O)N(CC(=O)NCCC2=CCCCC2)C1=O` (stereo not drawn) as the compound, how does the “activity, negative = toxicity” value read?
Answer: inactive: -4.72%

Question: Which “activity, negative = toxicity” value does the source give for `COc1ccc(-n2c(COc3ccc(C)cc3)n[nH]c2=S)cc1` here?
Answer: inactive: -1.57%

Question: Which Potency does the source give for `CC(=O)c1ccc(-c2cnc3c(NC=O)cc(-c4ccc(C(=O)N5CCOCC5)cc4)cn23)cc1` here?
Answer: inconclusive [cytotoxic, single point]

Question: For `COCC(=O)OC1CCn2c1nc1c2C(=O)C(C)=C(NC(C)=O)C1=O` (stereo not drawn), which Potency is on record?
Answer: active: 4.61 µM

Question: With `CC(C)c1cccc(-c2csc(C(C)(O)c3ccc(F)c(F)c3)n2)c1` (stereo not drawn) as the compound, how does the Potency read?
Answer: inconclusive [cytotoxic, single point]

Question: For `COc1ccc(Cl)cc1NC(=O)CSc1nc(N2CCOCC2)nc(N2CCOCC2)n1`, which “activity, negative = toxicity” value is on record?
Answer: inactive: 7.87%

Question: With `OCC1CCCN1C(=S)Nc1ccccc1` (stereo not drawn) as the compound, how does the Potency read?
Answer: inconclusive [rising, single point]

Question: Which “activity, negative = toxicity” value does the source give for `COCCCNC(=O)C[C@@H]1C[C@@]2(C(=O)OC)CC(C)(C)CC=C2N(Cc2cccc3ccccc23)C1=O` here?
Answer: inactive: -13.9%

Question: Which Potency does the source give for `CC(=O)Oc1c(-c2ccc(Br)o2)oc2ccccc2c1=O` here?
Answer: inconclusive [cytotoxic, partial curve]

Question: With `O=C(/C=C/c1ccccc1Cl)c1ccccc(=O)c1O` as the compound, how does the Potency read?
Answer: active: 11.6 µM

Question: With `OC(CNCCC1C=Nc2ccccc21)Cn1c2ccc(Cl)cc2c2cc(Cl)ccc21` (stereo not drawn) as the compound, how does the Potency read?
Answer: inconclusive [cytotoxic, single point]

Question: With `Cc1cc(C(=O)COC(=O)c2ccc(O)cc2)c(C)n1CC1COc2ccccc2O1` (stereo not drawn) as the compound, how does the Potency read?
Answer: inconclusive [cytotoxic, partial curve]

Question: With `CC(C)(C)c1ccc(C(=O)N2CCC2(C)C(=O)Nc2ccc3[nH]ncc3c2)cc1` (stereo not drawn) as the compound, how does the Potency read?
Answer: inconclusive [cytotoxic, partial curve]

Question: With `COc1ccccc1Cc1c(-c2cccc(Cl)c2)nc2ccc(C)cn12` as the compound, how does the Potency read?
Answer: inconclusive [cytotoxic, single point]

Question: Which Potency does the source give for `CCCCCCN1C[C@@H](n2cc(-c3ccc(F)cc3)nn2)[C@H](O)C[C@@H]1c1ccc(OC)cc1` here?
Answer: inconclusive [cytotoxic, single point]

Question: Which Potency does the source give for `C[C@H](O)[C@@H]1C(=O)N2CCc3c([nH]c4ccccc34)[C@@H]2C[C@@H]1N(C)C(=O)c1cc(Cl)cc(Cl)c1` here?
Answer: inconclusive [cytotoxic, single point]

Question: For `Cc1csc(N/N=C/c2ccccn2)n1`, which Potency is on record?
Answer: inconclusive [cytotoxic, single point]

Question: Which Potency does the source give for `CC1(C)Cc2c(c(N3CCOCC3)nc3sc4c(NCCN)ncnc4c23)CO1` here?
Answer: inconclusive [cytotoxic, single point]

Question: With `O=C(C[C@H]1C(=O)N(CCc2ccccc2)C[C@@H]1Cc1ccccc1)Nc1ccc(Br)cc1` as the compound, how does the Potency read?
Answer: inconclusive [cytotoxic, single point]

Question: With `O=C(CCS(=O)(=O)c1ccc(F)cc1)Nc1nnc(-c2cccs2)o1` as the compound, how does the “activity, negative = toxicity” value read?
Answer: inactive: -17.4%

Question: Which Potency does the source give for `O=C(c1ccccc1)c1ccc2cc(O)ccc2c1` here?
Answer: inconclusive [cytotoxic, single point]

Question: Which Potency does the source give for `Nn1cnnc1N/N=C/c1ccc(Cl)cc1Cl` here?
Answer: inconclusive [cytotoxic, single point]

Question: For `COc1ccc(C(=O)NNC(=O)c2cccs2)cc1S(=O)(=O)N1CCOCC1`, which “activity, negative = toxicity” value is on record?
Answer: inactive: 17.8%

Question: Which “activity, negative = toxicity” value does the source give for `Cc1sc(NC(=O)c2ccco2)c(C(c2ccncc2)N2CCOCC2)c1C` (stereo not drawn) here?
Answer: inactive: -12%

Question: With `Cc1cc(C)cc(-n2c(SCC(=O)Nc3cccc(S(=O)(=O)NC4=NCCCCC4)c3)nc3ccccc3c2=O)c1` as the compound, how does the “activity, negative = toxicity” value read?
Answer: inactive: 9.02%

Question: For `O=C(Nc1ccn(C2CC(OC(=O)c3ccccc3)C(CO)O2)c(=O)n1)c1ccccc1` (stereo not drawn), which “activity, negative = toxicity” value is on record?
Answer: inactive: -13.6%

Question: For `O=C(O)c1ccc(CNC(=O)C2CCN(S(=O)(=O)c3ccc4c(c3)OCCO4)CC2)cc1`, which “activity, negative = toxicity” value is on record?
Answer: inactive: -1.26%

Question: For `COc1ccc(CC(N)c2csc(NC(=O)Nc3ccccc3C(C)(C)C)n2)cc1` (stereo not drawn), which Potency is on record?
Answer: inconclusive [cytotoxic, single point]

Question: Which Potency does the source give for `COC(=O)c1[nH]c2ccccc2c1NC(=O)CN1CCN(C/C=C/c2ccccc2)CC1` here?
Answer: inconclusive [cytotoxic, single point]

Question: Which Potency does the source give for `Cc1cc(-n2c(SCC(=O)NCc3cccs3)nc3n[nH]c(C)c3c2=N)ccc1Cl` here?
Answer: inconclusive [cytotoxic, full curve]

Question: For `O=C(N/N=C(\c1ccccc1)c1cccnc1)c1cccc(F)c1`, which Potency is on record?
Answer: inconclusive [cytotoxic, full curve]

Question: With `O=C(Nc1nnc(-c2ccco2)s1)c1ccccc1` as the compound, how does the activity, negative = toxicity read?
Answer: inconclusive: 21%

Question: With `CC(=O)N(C)c1nc(-c2ccc(Cl)cc2)cs1` as the compound, how does the “activity, negative = toxicity” value read?
Answer: inactive: -0.477%

Question: With `CC1(C(=O)NCc2ccccc2Br)CCN1C(=O)CCc1ccc(Cl)cc1Cl` (stereo not drawn) as the compound, how does the Potency read?
Answer: inconclusive [cytotoxic, single point]

Question: For `O=C1C2CC=CCC2C(=O)N1c1ccc(OCC(O)Cn2nnc3ccccc32)cc1` (stereo not drawn), which “activity, negative = toxicity” value is on record?
Answer: inactive: -0.956%

Question: For `O=C(Nc1ccc(Cl)cc1C(=O)Nc1ccc(Br)cn1)c1ccco1`, which Potency is on record?
Answer: inconclusive [cytotoxic, single point]

Question: For `O=S(=O)(Nc1ccc(-c2nc3cccnc3s2)cc1)c1ccccc1F`, which “activity, negative = toxicity” value is on record?
Answer: inactive: 11.8%

Question: For `Cc1ccc(C(=O)O)cc1-c1ccc(C=C2C(=O)c3ccccc3C2=O)o1`, which “activity, negative = toxicity” value is on record?
Answer: inactive: -13.1%

Question: For `COc1ccc(-c2ccc3c(N)c(C(=O)c4cccc(OC)c4)sc3n2)cc1`, which Potency is on record?
Answer: inconclusive [cytotoxic, single point]

Question: For `CCc1ccccc1NC(=O)c1ccc(-n2c(C)ccc2C)cc1`, which Potency is on record?
Answer: inconclusive [cytotoxic, single point]

Question: For `Cc1ccccc1Nc1nc(N)nc(-c2oc3ccccc3c2C)n1`, which Potency is on record?
Answer: inconclusive [cytotoxic, single point]

Question: Which Potency does the source give for `CCCCC[C@@H](C)N1C[C@H](COCc2ccccc2)Oc2cc(N3CC[C@@H](O)C3)ccc2S1(=O)=O` here?
Answer: inconclusive [cytotoxic, single point]

Question: Which Potency does the source give for `Cc1ccc2c(c1)[C@H]1[C@H](CO2)[C@H](c2ccccc2)[C@]2(C)C(=O)Nc3ccc(F)cc3C(=O)N12` here?
Answer: active: 5.8 µM

Question: Which Potency does the source give for `O=C(NCCc1c[nH]c2ccccc12)c1cc2ccccc2oc1=O` here?
Answer: inconclusive [cytotoxic, full curve, poor fit]

Question: With `COc1cc(/C=N/O)cc(Br)c1OS(=O)(=O)c1ccc(C)cc1` as the compound, how does the Potency read?
Answer: inconclusive [cytotoxic, single point]

Question: For `CCOC(=O)c1sc(=S)n(-c2ccccc2)c1N(C(C)=O)C(C)=O`, which Potency is on record?
Answer: inconclusive [cytotoxic, single point]
